Assay results taken from article PMC7819943, “Rice protein-binding microarrays: a tool to detect cis-acting elements near promoter regions in rice”.
The list shows a part of the results.

These sequences were tested against T1, OsWOX13 (Oryza sativa, UniProt Q5QMM3 1-267) (assay: protein-binding microarray (RPBM); PBS, 2% BSA, 51.3 ng/ul salmon testes DNA, 50 uM zinc acetate, 200 nM TF, 25 C, 1 h; high values mean tight binding). Conditions: protein: recombinant; tags: N-terminal polyhistidine and DsRed monomer fusion (pET32a); label: CyDye5-dUTP incorporated in the synthesized complementary strand; 3' TTTTT single-stranded linker to array surface; dsDNA, one strand shown.
T1 sequence: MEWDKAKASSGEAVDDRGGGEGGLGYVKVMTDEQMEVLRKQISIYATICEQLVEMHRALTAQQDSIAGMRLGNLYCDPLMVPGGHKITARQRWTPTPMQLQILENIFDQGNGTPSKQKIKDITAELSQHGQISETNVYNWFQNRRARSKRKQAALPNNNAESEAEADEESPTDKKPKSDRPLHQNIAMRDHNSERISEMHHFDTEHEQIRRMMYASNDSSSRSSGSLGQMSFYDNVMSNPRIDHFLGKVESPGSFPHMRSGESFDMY
In short: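 Binding signal is defined as the fluorescence intensity of each feature in arbitrary units, read on an Axon 4000B scanner. Transcription factors with N-terminal polyhistidine and DsRed fusions came from E. coli BL21-CodonPlus and were purified on Ni–NTA. They were incubated at 200 nM for 1 h at 25 °C on a custom Agilent array that had been made double-stranded with Cy5-dUTP, with 50 µM zinc acetate present, and the array was washed.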

Sequence | binding signal
GAAGATTATTAGTAGTTTATAAAATCTCCCTTCGCTCACCCGGAGTCACCTAGTGCAG | 6340 fluorescence intensity (a.u.)
CACAAATTACGCTGCTTACATCGTGTTCGTGGTAGTTGACCGGAGTCACCTAGTGCAG | 14200 fluorescence intensity (a.u.)
TATAATATTCATCAATTAGGATTCAAGTTCAGTTGCACTTCGGAGTCACCTAGTGCAG | 4180 fluorescence intensity (a.u.)
AAATAATTTATTATTATATTTTATAACGGAGTAAGTAGTGCGGAGTCACCTAGTGCAG | 45300 fluorescence intensity (a.u.)
TTCTAATTTCAATCAAACTTTCAATTTTGGCGTGAACTAACGGAGTCACCTAGTGCAG | 38700 fluorescence intensity (a.u.)
GCCTTGATTAATCCCGTGCTCCGGCGAGCTAATTAACCCTCGGAGTCACCTAGTGCAG | 33600 fluorescence intensity (a.u.)
TGACTGATAGGAGTTAGGACTTTATCCAATTTGGTATGTTCGGAGTCACCTAGTGCAG | 8830 fluorescence intensity (a.u.)
ATTATTATTTATTTTATTATGATTTGATTCGTCATCAAATCGGAGTCACCTAGTGCAG | 5780 fluorescence intensity (a.u.)
TACAAATATTCAGACCGCTATGATTGGTGAATTTGTGGATCGGAGTCACCTAGTGCAG | 5190 fluorescence intensity (a.u.)
CTAATTAAATAATTAAGGACTGACCAGGTTACTGTTAAATCGGAGTCACCTAGTGCAG | 32200 fluorescence intensity (a.u.)
ATTTAATGAAACTAATTTTATTTTGTAGATGTTGCTAATTCGGAGTCACCTAGTGCAG | 7910 fluorescence intensity (a.u.)
CCAGATGCTGATAGGCTGAGATTAGCTGCTAAGTAAAAGCCGGAGTCACCTAGTGCAG | 7280 fluorescence intensity (a.u.)
GACAAATTTGTACAGTACTAACGGTGGCTAACCGGACGGTCGGAGTCACCTAGTGCAG | 10400 fluorescence intensity (a.u.)
TAGATTTATTAACTGAACAAATTTGGTGTTGTAAATATTACGGAGTCACCTAGTGCAG | 16500 fluorescence intensity (a.u.)
TATAAATTTAGTAAATCGCACTTCTGAATATATGAATGCGCGGAGTCACCTAGTGCAG | 11800 fluorescence intensity (a.u.)
TCATCAAATTAATAATTAAATATATTTTCATAATAAATTTCGGAGTCACCTAGTGCAG | 5060 fluorescence intensity (a.u.)
TTGTGATTTGTGAGGATGTCTTGGTCTAGTCCTAGAAGACCGGAGTCACCTAGTGCAG | 18800 fluorescence intensity (a.u.)
AGGTATAATTTGCCTTAACAATTATTACCACAGTATCAAGCGGAGTCACCTAGTGCAG | 21300 fluorescence intensity (a.u.)
ATGTCCAATTGCCAATCCCCAAACCAAACAGAGGCCGTGTCGGAGTCACCTAGTGCAG | 18000 fluorescence intensity (a.u.)
CAGAATAATCATTTGTCATCAATGTGTGCTGTGTGGTGGTCGGAGTCACCTAGTGCAG | 5260 fluorescence intensity (a.u.)
TTATGCATTAACAACGTAACTAATTTAATTTGATTAGTTTCGGAGTCACCTAGTGCAG | 24000 fluorescence intensity (a.u.)

Sequence | binding signal
ATATTATTTAAATTTTATTTAATATTAATGGTGTTCTATACGGAGTCACCTAGTGCAG | 4180 fluorescence intensity (a.u.)
TGTAATTATAATTTATTTTATTGTGATTTGATTTATCATCCGGAGTCACCTAGTGCAG | 59800 fluorescence intensity (a.u.)
GGACACCCTGGGCCTAATTGACACTATGCGTTAATAGCAGCGGAGTCACCTAGTGCAG | 7330 fluorescence intensity (a.u.)
GTTTGATTTGATCGGTTCCGCCATTAGCAAACCTCGCCGACGGAGTCACCTAGTGCAG | 36500 fluorescence intensity (a.u.)
GATTCAGGATTTGATACCATAATTGAGAGTATGCTAACCCCGGAGTCACCTAGTGCAG | 6980 fluorescence intensity (a.u.)
GCAGATGATGGATGTCGACAACGATGACGCCAGCGGACAGCGGAGTCACCTAGTGCAG | 3290 fluorescence intensity (a.u.)
CTGAACCAATCACAACCATCTATCATCTAATTTCTCCAACCGGAGTCACCTAGTGCAG | 13700 fluorescence intensity (a.u.)
CGGAACTAATTAACTAAAATTAAACCCCGCTTTCTCGGTCCGGAGTCACCTAGTGCAG | 41800 fluorescence intensity (a.u.)
TTTATTGGACATTAATTGATAATCACCATAGATAGATATACGGAGTCACCTAGTGCAG | 31600 fluorescence intensity (a.u.)
CATGTCATTTGGCGTTAATTATACCTACCACACATGCAGCCGGAGTCACCTAGTGCAG | 8910 fluorescence intensity (a.u.)
AAAGACGTCGCTAATTGAGAGGACCGTCCGCGTCGCTCCCCGGAGTCACCTAGTGCAG | 31200 fluorescence intensity (a.u.)
ACGGTTAATTAATTCATTAACTGAACATCTAATTTGTCAACGGAGTCACCTAGTGCAG | 49900 fluorescence intensity (a.u.)
TTCGAAAATTTACAAATCTAATTGCCTGCCGCCCTCAAGACGGAGTCACCTAGTGCAG | 18300 fluorescence intensity (a.u.)
AAAGAATTTCACACTTTGATTGCAGATGTCATTTCCAGTGCGGAGTCACCTAGTGCAG | 11800 fluorescence intensity (a.u.)
TTGTCCAGTGATTTGAATTCATGTGAGTTGATGTGCAGCACGGAGTCACCTAGTGCAG | 12500 fluorescence intensity (a.u.)
TGCATTGTGATTAAATCTGATTCATATATACTAATACCTACGGAGTCACCTAGTGCAG | 9730 fluorescence intensity (a.u.)
CGTGTAATCTGTACTAATTTAAATAAAATGCTAGGAGGAACGGAGTCACCTAGTGCAG | 11300 fluorescence intensity (a.u.)
ATCAATTAATCATACTATCAAGATGAAACTAGCTAATTAACGGAGTCACCTAGTGCAG | 7880 fluorescence intensity (a.u.)
TCTAACTGTGGATAATATCTGACAGGAAATTTGATATCAACGGAGTCACCTAGTGCAG | 6210 fluorescence intensity (a.u.)
TTTTGATTTTCTTTCAATTCATTTTGCCCACTTCCCCTTCCGGAGTCACCTAGTGCAG | 9680 fluorescence intensity (a.u.)
ATAACCCAATCCACTAATTATCTATATACCCTCTCCTAGCCGGAGTCACCTAGTGCAG | 8130 fluorescence intensity (a.u.)
